Assay results from PubChem BioAssay AID624296 (National Center for Advancing Translational Sciences (NCATS), 2012).
Hit rate of the full screen: of about 350,000 compounds, about 9,900 (2.8%) were called active. This list was built around the results that the source calls inconclusive (neither active nor inactive); the mix of calls is not that of the screen. The call rests on the fitted dose curve; in most records, active means well fitted activation curve with a large enough effect; inconclusive means small, poorly fitted or top-dose-only effect; inactive means no such curve, though single readings can be large or run the other way. No potency is given beside an inconclusive call; the fits are too rough.

test: A quantitative high throughput screen for small molecules that induce DNA re-replication in MCF 10a normal breast cells.; further: nearly all actives have a fitted effect of over 50% in size; on activity, positive = re-replication: % of control where 0% means no effect; conditions: MCF 10A DNA re-replication, Hoechst nuclear intensity, 48 h; activity, positive = re-replication: at 46.1 µM (top of the series)
Potency means the concentration at half of the fitted maximal effect; tags describe the fitted curve by direction and shape.

With O=C(NCc1ccco1)c1c(O)c2cccc3c2n(c1=O)CCC3 as the compound, how does the Potency read?
Its Potency is inconclusive [activator, full curve].

With Cc1ccc(N=Cc2cc3c(cc2O)OC(N)=C(C#N)C3c2ccccc2)cc1 (stereo not drawn) as the compound, how does the Potency read?
Its Potency is active: 18.4 µM.

Which Potency does the source give for Cc1cccc(NC(=O)c2nc[nH]c2C(=O)N[C@@H](C)c2ccccc2)c1 here?
The Potency was inconclusive [activator, single point].

For COCc1cc(=O)oc2cc(NC(=O)c3ccc(C(C)(C)C)cc3)ccc12, which Potency is on record?
The Potency was inconclusive [activator, partial curve].

With COc1ccc(N2CCN(C(=O)CCNS(=O)(=O)c3ccccc3)CC2)cc1 as the compound, how does the Potency read?
Its Potency is active: 25.9 µM.

For O=C(O)c1cccc(S(=O)(=O)N(Cc2ccccc2)c2ccc(Cl)cc2)c1, which “activity, positive = re-replication” value is on record?
The value was inactive: 0.22%.

With Cc1ccc(Cn2ncc(C)c2N)o1 as the compound, how does the Potency read?
The Potency was inconclusive [activator, partial curve, poor fit].

For CN(C)S(=O)(=O)c1cccc(NC(=O)c2ccncc2)c1, which Potency is on record?
Its Potency is inconclusive [activator, single point].

With Cc1cc(C)c(C(=O)COC(=O)CNC(=O)c2ccccc2C)c(C)c1 as the compound, how does the “activity, positive = re-replication” value read?
The value was inactive: -3.75%.

Which Potency does the source give for Nc1nc(-c2ccc(Cl)cc2Cl)cn1N here?
Its Potency is inconclusive [activator, single point].

For C=CCc1cccc(/C=N/NC(=O)C(C)Nc2ccc(C)cc2)c1O (stereo not drawn), which Potency is on record?
The Potency was inconclusive [activator, full curve].

With Cc1ccccc1C(=O)NNC1=NCCC1 as the compound, how does the “activity, positive = re-replication” value read?
The value was inactive: -4.04%.

Which Potency does the source give for CCCCCCSc1ccc(-c2nc3cnccn3c2NCCCC)cc1 here?
The Potency was inconclusive [activator, single point].

For C/C(=N\NC(=S)Nc1cc(S(=O)(=O)N2CCOCC2)ccc1Cl)c1ccccc1F, which Potency is on record?
Its Potency is inconclusive [activator, partial curve].

With CN1CCN(CC(=O)Nc2ccccc2Oc2ccccc2)CC1 as the compound, how does the “activity, positive = re-replication” value read?
Its value is inactive: -2.9%.

With c1cc2c3c(cccc3c1)NC1(CCCCC1)N2 as the compound, how does the “activity, positive = re-replication” value read?
The value was inactive: -2.6%.

With Cc1ccc(S(=O)(=O)CCC(=O)OCC(=O)NCCc2ccccc2)cc1 as the compound, how does the Potency read?
The Potency was inconclusive [activator, full curve, poor fit].

Which “activity, positive = re-replication” value does the source give for Cc1cc(C)c(NC(=O)CNC(=O)[C@@H]2CCCN2C(=O)c2cccs2)c(C)c1 here?
The value was inactive: 1.14%.

For Cn1c2ccc(F)cc2c2nnc(SCC(=O)Nc3cccc(O)c3)nc21, which “activity, positive = re-replication” value is on record?
The value was inactive: 3.39%.

With O=C(Cc1ccccc1)c1ccccc1C(=O)N1CCCCC1 as the compound, how does the “activity, positive = re-replication” value read?
The value was inactive: -16.5%.

Which Potency does the source give for COc1ccc(CN(CCC(c2ccccc2)c2ccc(OC(C)C)cc2)C(=O)CCl)cc1OC (stereo not drawn) here?
Its Potency is active: 4.61 µM.

With CCOc1ccccc1N1C(=O)CC(Sc2n[nH]c(-c3ccccc3)n2)C1=O (stereo not drawn) as the compound, how does the Potency read?
Its Potency is active: 14.6 µM.

For CC/C(=C/c1sc2ccc(C)cc2[n+]1CCCS(=O)(=O)[O-])SC, which Potency is on record?
The Potency was inconclusive [activator, partial curve, poor fit].

With COc1ccc([C@H]2CC(=O)C=C(c3c(C)cc(C)cc3C)C2)cc1 as the compound, how does the Potency read?
Its Potency is inconclusive [activator, single point].

Which activity, positive = re-replication does the source give for Fc1ccccc1-c1cc2ccccc2cn1 here?
The activity, positive = re-replication was inconclusive: -23.6% [activator].

For CC(=O)c1cccc(NC(=O)CSc2ccc(-c3ccccn3)nn2)c1, which Potency is on record?
The Potency was inconclusive [activator, partial curve, poor fit].

With CCOc1ccc(OCCSc2nc(N)cc(=O)[nH]2)cc1 as the compound, how does the “activity, positive = re-replication” value read?
Its value is inactive: -2.07%.

With CN(CC(=O)Nc1ccccc1Cl)C(=O)c1ccccc1Sc1ccccc1C#N as the compound, how does the “activity, positive = re-replication” value read?
Its value is inactive: 13.6%.

With S=c1[nH]nc(-c2ccc(Cl)cc2)n1/N=C/c1cccs1 as the compound, how does the “activity, positive = re-replication” value read?
Its value is inactive: -14.7%.

Which “activity, positive = re-replication” value does the source give for COCCCN1C(=O)C2C(C(=O)Nc3cccc(Cl)c3)C3C=CC2(O3)C1C(=O)NC1CCCCC1 (stereo not drawn) here?
The value was inactive: -0.791%.

For CCSc1nsc(NC(=O)Nc2ccccc2OC)n1, which “activity, positive = re-replication” value is on record?
Its value is inactive: 0.0049%.

For CCCn1nnc(NC(=O)Cc2ccc(Cl)cc2)n1, which Potency is on record?
The Potency was active: 8.2 µM.

Which Potency does the source give for CCCN(CC(=O)NC(=O)NC1CCCCC1)CC(=O)Nc1cc(Cl)ccc1Cl here?
The Potency was inconclusive [activator, single point].

For Cc1ccc(N2CC(C(=O)Nc3ccc(N4CCOCC4)cc3)CC2=O)cc1C (stereo not drawn), which Potency is on record?
Its Potency is inconclusive [activator, partial curve, poor fit].

With Cc1oc2nc(SCC(=O)Nc3ccc(S(N)(=O)=O)cc3)nc(NC(=O)c3ccccc3)c2c1C as the compound, how does the Potency read?
Its Potency is inconclusive [activator, partial curve, poor fit].

With CC(=O)C(C(C)=O)C(NC(=O)c1cccnc1)(C(F)(F)F)C(F)(F)F as the compound, how does the Potency read?
The Potency was active: 20.6 µM.

Which Potency does the source give for C#CCOCCOCCOCCNc1nc(N2CCN(C(=O)CCCCCCCCCCNC(=O)[C@H](CCCCN)n3cc(C[C@@H](C)CC)nn3)CC2)nc(N2CCN(C(=O)CCCCCCCCCCNC(=O)[C@H](CCCN=C(N)N)n3cc(C[C@@H](C)CC)nn3)CC2)n1 here?
The Potency was active: 16.4 µM.

Which Potency does the source give for Cc1cccc(-c2nnc3sc(-c4ccccc4C)nn23)c1 here?
The Potency was inconclusive [activator, single point].

For N#Cc1c(SCC(=O)Nc2ccc(Cl)cc2Cl)sc2c(O)cc(=O)[nH]c12, which “activity, positive = re-replication” value is on record?
Its value is inactive: 0.904%.

For CCCS(=O)(=O)c1c(S(=O)(=O)CCC)c2c(C)cccn2c1C(=O)N/N=C/c1cc(O)cc(O)c1, which Potency is on record?
Its Potency is inconclusive [activator, partial curve, poor fit].

For CCOc1ccc2[nH]c(=O)c(CN(CCc3ccccc3)C(=O)N3CCCC3)cc2c1, which “activity, positive = re-replication” value is on record?
The value was inactive: -10.8%.

Which Potency does the source give for COc1ccc(/C=C/C(=O)NCc2cn(C)nc2C)cc1COc1ccc(Br)cc1 here?
Its Potency is inconclusive [activator, partial curve].

Which Potency does the source give for COc1cc(C#Cc2ccc3cc(CCCO)oc(=O)c3c2)cc(OC)c1 here?
Its Potency is inconclusive [activator, full curve, poor fit].

With CCOC(=O)NC(=S)Nc1ccc(OC)cc1 as the compound, how does the Potency read?
Its Potency is inconclusive [activator, single point].

For CCc1ccc2nc(N(CCCN(C)C)C(=O)c3ccc(S(=O)(=O)N(C)C4CCCCC4)cc3)sc2c1, which Potency is on record?
Its Potency is active: 18.4 µM.

Which Potency does the source give for O=C(c1ccc2c(=O)n(-c3ccccc3)c(=S)[nH]c2c1)N1CCCCC1 here?
The Potency was inconclusive [activator, partial curve, poor fit].

For CCC(=O)NC(=S)Nc1cccc(-c2nc3ncccc3o2)c1, which “activity, positive = re-replication” value is on record?
The value was inactive: -10.4%.

With CCc1ccc(NC2=CC(=O)CC(c3ccco3)C2)cc1 (stereo not drawn) as the compound, how does the Potency read?
The Potency was inconclusive [activator, partial curve, poor fit].

With C#CC(C)OC(=O)C(C)NC(=O)c1ccccc1 (stereo not drawn) as the compound, how does the “activity, positive = re-replication” value read?
The value was inactive: 18.7%.

With O=c1cc(-c2ccccc2)nc2cc(-c3ccc(F)cc3)[nH]n12 as the compound, how does the Potency read?
Its Potency is inconclusive [activator, full curve, poor fit].

For COc1ccc(S(=O)(=O)NCc2ccccn2)cc1OC, which “activity, positive = re-replication” value is on record?
Its value is inactive: -6.86%.

For N#Cc1nc(-c2ccccc2F)oc1NCCN1CCOCC1, which “activity, positive = re-replication” value is on record?
Its value is inactive: 9.11%.

With COc1cccc(COc2ccc(N(C)S(=O)(=O)c3ccccc3)cc2)c1 as the compound, how does the Potency read?
Its Potency is inconclusive [activator, full curve].

For COc1ccc(-c2cc(C(=O)N/N=C/c3cccnc3)c3ccccc3n2)c(OC)c1, which Potency is on record?
The Potency was inconclusive [activator, partial curve, poor fit].

For Cc1ccc(NC(=O)Cn2cccc2)cc1Cl, which “activity, positive = re-replication” value is on record?
Its value is inactive: -6.86%.

Which Potency does the source give for CC(C)c1cc(C(N)=O)c(NC(=O)c2cccc(COc3ccc(Cl)cc3)c2)s1 here?
Its Potency is inconclusive [activator, full curve, poor fit].

With CCOC(=O)c1csc(NC(=O)c2cc(-c3ccccn3)nc3ccccc23)n1 as the compound, how does the “activity, positive = re-replication” value read?
The value was inactive: -6.19%.

Which “activity, positive = re-replication” value does the source give for N#Cc1nc(COc2ccccc2F)oc1NCCCn1ccnc1 here?
The value was inactive: 0.944%.

For CCCCCn1c(=S)[nH]c2ncccc2c1=O, which “activity, positive = re-replication” value is on record?
Its value is inactive: -1.34%.

For CC(C)Sc1nc2sccc2c(=O)n1-c1ccccc1, which Potency is on record?
The Potency was inconclusive [activator, partial curve].

For COc1cc(OC)c2c(c1C(CCN1CCOCC1)c1ccc(N(C)C)cc1)OC(=O)CC2c1ccc(N(C)C)cc1 (stereo not drawn), which Potency is on record?
The Potency was inconclusive [activator, full curve, poor fit].

With Cc1onc(-c2c(Cl)cccc2Cl)c1C(=O)O/N=C(\C#N)c1ccccc1 as the compound, how does the Potency read?
Its Potency is inconclusive [activator, partial curve, poor fit].

Which Potency does the source give for Cc1ccc2c(c1)C(=O)N1[C@H]3c4cc(C)ccc4OC[C@@H]3[C@H](c3ccccc3)[C@]1(C)C(=O)N2 here?
The Potency was active: 5.8 µM.

For O=C(Oc1ccc(-n2cnnn2)cc1)c1ccccc1, which Potency is on record?
The Potency was inconclusive [activator, partial curve, poor fit].

For Cc1csc(N(C(=O)c2cccc(S(=O)(=O)N3CCCC3)c2)c2ccccc2)n1, which “activity, positive = re-replication” value is on record?
Its value is inactive: -3.77%.

For c1ccc(C2=NN(c3ccccc3)CC2)cc1, which Potency is on record?
The Potency was active: 20.6 µM.

With Cc1ccc(S(=O)(=O)Nc2ccccc2C(=O)OC(C)C(=O)Nc2ccc3ccccc3c2)cc1[N+](=O)[O-] (stereo not drawn) as the compound, how does the “activity, positive = re-replication” value read?
The value was inactive: 10.3%.

With CN(C)c1ncnc2[nH]ncc12 as the compound, how does the “activity, positive = re-replication” value read?
The value was inactive: -3.79%.

With Cc1ccccc1-n1c(=O)/c(=C\c2ccco2)s/c1=C(/C#N)C(=O)Nc1ccccc1 as the compound, how does the “activity, positive = re-replication” value read?
The value was inactive: 11.1%.

For Cc1c(C(=O)N2CCN(c3ccccc3)CC2)oc2c(Cl)cccc12, which Potency is on record?
The Potency was inconclusive [activator, partial curve, poor fit].

Which Potency does the source give for Cc1cccc(/C=C2/S/C(=N/N=C3\CC4CCC3(C)C4(C)C)NC2=O)c1 (stereo not drawn) here?
Its Potency is inconclusive [activator, partial curve, poor fit].

With COc1ccc(C(=O)Nc2ccc3ccccc3c2)c(OC)c1 as the compound, how does the Potency read?
The Potency was inconclusive [activator, single point].

For COC(=O)CCSc1cc(NCCOC(C)=O)c([N+](=O)[O-])c2nonc12, which Potency is on record?
The Potency was inconclusive [activator, single point].
